For the assay, the target named is endogenous CSN1 (NIH3T3) (mouse (endogenous in NIH3T3)) (UniProt Q99LD4). As to the kind of experiment: co-IP; CSN1 immunoprecipitated from DRB treated NIH3T3 nuclear extract, pre-immune serum as control; blot for endogenous SAP130.

Amino acid sequences for entries named in this document (tags omitted).
UniProt Q99LD4: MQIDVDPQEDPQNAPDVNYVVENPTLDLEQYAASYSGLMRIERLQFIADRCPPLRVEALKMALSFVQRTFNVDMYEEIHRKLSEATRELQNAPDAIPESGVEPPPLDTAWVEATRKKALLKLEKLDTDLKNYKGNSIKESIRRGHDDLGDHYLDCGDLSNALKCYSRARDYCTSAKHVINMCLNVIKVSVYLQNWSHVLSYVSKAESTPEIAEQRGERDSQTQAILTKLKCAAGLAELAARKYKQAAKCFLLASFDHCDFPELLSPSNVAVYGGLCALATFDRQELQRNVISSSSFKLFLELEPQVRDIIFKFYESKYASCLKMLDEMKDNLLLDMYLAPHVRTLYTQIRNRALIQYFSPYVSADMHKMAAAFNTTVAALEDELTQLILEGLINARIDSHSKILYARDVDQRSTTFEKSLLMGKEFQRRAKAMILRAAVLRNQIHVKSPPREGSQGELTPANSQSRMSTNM

These are yes or no findings as the source states them, for the method shown. In cells and extracts the contact can be indirect. Some entries that bind do so weakly or less than the wild type.

B1: SAP130/SF3b-3 (endogenous, NIH3T3) (protein, UniProt Q921M3 1-1217)
chain: MFLYNLTLQRATGISFAIHGNFSGTKQQEIVVSRGKILELLRPDPNTGKVHTLLTVEVFGVIRSLMAFRLTGGTKDYIVVGSDSGRIVILEYQPSKNMFEKIHQETFGKSGCRRIVPGQFLAVDPKGRAVMISAIEKQKLVYILNRDAAARLTISSPLEAHKANTLVYHVVGVDVGFENPMFACLEMDYEEADNDPTGEAAANTQQTLTFYELDLGLNHVVRKYSEPLEEHGNFLITVPGGSDGPSGVLICSENYITYKNFGDQPDIRCPIPRRRNDLDDPERGMIFVCSATHKTKSMFFFLAQTEQGDIFKITLETDEDMVTEIRLKYFDTVPVAAAMCVLKTGFLFVASEFGNHYLYQIAHLGDDDEEPEFSSAMPLEEGDTFFFQPRPLKNLVLVDELDSLSPILFCQIADLANEDTPQLYVACGRGPRSSLRVLRHGLEVSEMAVSELPGNPNAVWTVRRHIEDEFDAYIIVSFVNATLVLSIGETVEEVTDSGFLGTTPTLSCSLLGDDALVQVYPDGIRHIRADKRVNEWKTPGKKTIVKCAVNQRQVVIALTGGELVYFEMDPSGQLNEYTERKEMSADVVCMSLANVPPGEQRSRFLAVGLVDNTVRIISLDPSDCLQPLSMQALPAQPESLCIVEMGGTEKQDELGERGSIGFLYLNIGLQNGVLLRTVLDPVTGDLSDTRTRYLGSRPVKLFRVRMQGQEAVLAMSSRSWLSYSYQSRFHLTPLSYETLEFASGFASEQCPEGIVAISTNTLRILALEKLGAVFNQVAFPLQYTPRKFVIHPESNNLIIIETDHNAYTEATKAQRKQQMAEEMVEAAGEDERELAAEMAAAFLNENLPESIFGAPKAGNGQWASVIRVMNPIQGNTLDLVQLEQNEAAFSVAVCRFSNTGEDWYVLVGVAKDLILSPRSVAGGFVYTYKLVNNGEKLEFLHKTPVEEVPAAIAPFQGRVLIGVGKLLRVYDLGKKKLLRKCENKHIANYISGIQTIGHRVIVSDVQESFIWVRYKRNENQLIIFADDTYPRWVTTASLLDYDTVAGADKFGNICVVRLPPNTNDEVDEDPTGNKALWDRGLLNGASQKAEVIMNYHVGETVLSLQKTTLIPGGSESLVYTTLSGGIGILVPFTSHEDHDFFQHVEMHLRSEHPPLCGRDHLSFRSYYFPVKNVIDGDLCEQFNSMEPNKQKNVSEELDRTPPEVSKKLEDIRTRYAF
In the case of B1, the binding result is “binds weakly”.
